From article PMC11253624, “Unsaturated fatty acid perturbation combats emerging triazole antifungal resistance in the human fungal pathogen Aspergillus fumigatus” (mBio, 2024)
Several values for one entry are separate records, joined by “and”; a condition that tells them apart may be missing. Identical values can stand only once.

Key:
[1] = tested on: Cryptococcus neoformans; assay: FIC checkerboard assay MBX-7591 and oleic acid, C. neoformans; type: cell-based
Description: Single-treatment controls were completed with 50 µL of media to substitute the volume of the other compound. […] Additional untreated and media-only controls were added to the plate as described above. Incubation of the plates and MIC assessments (individual and in combination) were performed as described above. FIC calculations were done according to the established formula: ∑FIC=MIC combination compound A/MIC individual compound A + MIC combination compound B/MIC individual compound B . Synergy was considered equal or lower than 0.5, and antagonism was considered to be higher than 2. FIC scores reported represent between three and five biological replicates. All antifungal susceptibility testing was done in 96-well plates using RPMI 1640 media buffered with 165 mM of MOPS and pH 7 using NaOH. CLSI-based microbroth dilution assays were done in accordance with M27 ([49]). […] Additionally, an untreated control (100 µL of a stock of 2 × 10^3 spores/mL and 100 µL of media) and a media-only control (200 µL media) were included in the plate. The plate was covered in a Breathe-Eazy membrane to allow for uniform oxygen diffusion throughout the plate and incubated for 24 hours at 35°C (Candida spp.) or 72 hours at 35°C ± 5% CO2 (Cryptococcus neoformans).

[2] = tested on: Aspergillus fumigatus; assay: CLSI-based microbroth dilution MIC, A. fumigatus strains
Description: All antifungal susceptibility testing was done in 96-well plates using RPMI 1640 media buffered with 165 mM of MOPS and pH 7 using NaOH. CLSI-based microbroth dilution assays were done in accordance with M38 ([49]). Serial dilutions of the compound tested (voriconazole, MBX-7591) were done in the Y-axis of the plate, encompassing testing of 10 different concentrations. After serial dilutions, each well contained 100 µL of 2× of the desired final compound testing concentration. Each testing well was then inoculated with 100 µL of a stock of 5× 10^4 spores/mL of the appropriate strain, for a final concentration of 2.5 × 10^4 spores and to achieve the desired final compound testing concentrations. Additionally, an untreated control (100 µL of a stock of 5 × 10^4 spores/mL and 100 µL of media) and a media-only control (200 µL media) were included in the plate. The plate was covered in a Breathe-Eazy membrane to allow for uniform oxygen diffusion throughout the plate and incubated for 48 hours at 37°C, 5% CO2.

[3] = tested on: Aspergillus fumigatus; assay: FIC checkerboard synergy assay, A. fumigatus; details: for MIC: Aspergillus fumigatus
Description: For checkerboard synergy assays, serial twofold dilutions in the Y-axis were done with either voriconazole, fluconazole, or oleic acid for 4× the desired final concentration in 50 µL per well. Serial twofold dilutions of MBX-7591 were done in the X-axis for a 4× of the desired final concentration in 50 µL per well. Single-treatment controls were completed with 50 µL of media to substitute the volume of the other compound. Each well was then inoculated with 100 µL of a stock of 5 × 10^4 spores/mL of the appropriate strain, for a final concentration of 2.5 × 10^4 spores and to achieve the desired final compound testing concentrations. Additional untreated and media-only controls were added to the plate as described above. Incubation of the plates and MIC assessments (individual and in combination) were performed as described above. FIC calculations were done according to the established formula: ∑FIC=MIC combination compound A/MIC individual compound A + MIC combination compound B/MIC individual compound B . Synergy was considered equal or lower than 0.5, and antagonism was considered to be higher than 2. FIC scores reported represent between three and five biological replicates.

O=C(c1ccsc1)N1CCC(Cc2ccc(COc3ccncc3)cc2)CC1 [MBX-7591]
1.227 µg/mL: MIC MBX-7591 in combination ([3]; strain 08-31-08-91, with VCZ)
2.453 µg/mL: MIC MBX-7591 ([3]; CEA10, without OA (OA checkerboard)) | MIC MBX-7591 ([3]; strain CEA10, alone (VCZ checkerboard))
2.45 µg/mL: MIC ([2]; read-out: MIC MBX-7591, laboratory WT strains CEA10, AF293, AFS35, Table S6) | MIC ([2]; read-out: MIC MBX-7591, strain 08-19-02-46 (TR34/L98H)) | MIC ([2]; read-out: MIC MBX-7591, strain 08-19-02-61 (TR34/L98H), Table S6) | MIC ([2]; read-out: MIC MBX-7591, strain 10-19-02-27 (TR34/L98H)) | MIC ([2]; read-out: MIC MBX-7591, strain F11628 (G138C), Table S6) | MIC ([2]; read-out: MIC MBX-7591, strain F15390 (M220T), Table S6) | MIC ([2]; read-out: MIC MBX-7591, strain RBH-AF-01) | MIC ([2]; read-out: MIC MBX-7591, strain RBH-AF-02) | MIC ([2]; read-out: MIC MBX-7591, strain RBH-AF-03) | MIC ([2]; read-out: MIC MBX-7591, strain RBH-AF-08) | MIC ([3]; read-out: MIC MBX-7591, CEA10, without OA (OA checkerboard)) | MIC ([3]; read-out: MIC MBX-7591, strain CEA10, alone (FLC checkerboard)) | MIC ([3]; read-out: MIC MBX-7591, strain CEA10, alone (VCZ checkerboard))
0.613 µg/mL: MIC MBX-7591 in combination ([3]; strain 08-19-02-61, with VCZ) | MIC MBX-7591 in combination ([3]; strain CEA10, with FLC) | MIC MBX-7591 in combination ([3]; strain CEA10, with VCZ) | MIC MBX-7591 in combination ([3]; strain F11628, with VCZ) | MIC MBX-7591 in combination ([3]; strain F15390 (caf8), with VCZ)
9.81 µg/mL: MIC MBX-7591 combination ([3]; CEA10, with 7.81 μg/ml OA)
4.91 µg/mL: MIC ([1]; Cryptococcus neoformans, read-out: MIC MBX-7591) | MIC ([2]; read-out: MIC MBX-7591, strain 08-19-02-10 (TR34/L98H)) | MIC ([2]; read-out: MIC MBX-7591, strain 08-31-08-91 (TR34/L98H), Table S6)
1.23 µg/mL: MIC ([2]; read-out: MIC MBX-7591)
1.23 to 2.45 µg/mL: MIC ([2]; ATCC46455, read-out: MIC MBX-7591)
19.63 µg/mL and 19.625 µg/mL: MIC MBX-7591 combination ([3]; CEA10, with 15.63 μg/ml OA)
> 19.63 µg/mL: MIC MBX-7591 combination ([1]; H99, with 31.25 μg/ml OA, 5% CO2) | MIC MBX-7591 combination ([3]; CEA10, with 31.25 μg/ml OA)
